Out of some 48,000 compounds screened, about 120 (0.25%) were called active. Not shown: some 4% with an inconclusive outcome. Calls follow the shape of the dose curve; as a rule, active = well fitted activation curve with a large enough effect; inconclusive = small, poorly fitted or top-dose-only effect, or another doubt; inactive = no such curve, though single readings can be large or run the other way. The list shows a part of the results.
Assay: Primary qHTS for Identification of Small Molecule Activators of Huntingtin-Antisense Promoter Activity; also: nearly all actives have a fitted effect of over 55% in size
Details: HEK293 HTT-AS promoter firefly luciferase reporter (activity 0% = vehicle and -100% = no light), 24 h; series mostly up to 57.5 µM; activity change, positive = activation: at the top concentration
In short: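 Luminescence was read after Dual-Glo reagent and a 10 min room-temperature incubation. Values were normalized to vehicle (0% activity) and zero RLU (-100% activity). Reporter HEK293 cells had been exposed to compounds (up to 57.5 uM final) for 24 h.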

Row | SMILES | activity change, positive = activation
1 | COc1cc(F)c(S(=O)(=O)Nc2c(C)n(C)n(-c3ccccc3)c2=O)cc1OC | inactive: 5.4%
2 | COC(=O)c1ccc(CSc2nnc3ccc4ccccc4n23)cc1 | inactive: 8.67%
3 | COc1ccccc1Cn1cc(C(=O)c2ccc(C)cc2)c(=O)c2cc3c(cc21)OCCO3 | inactive: -33.2%
4 | CCn1cc2c(n1)-c1c(oc(C(=O)Nc3cccc(C(F)(F)F)c3)c1C)CC2 | inactive: 4.15%
5 | Cc1ccc(-n2c(=O)c3cccnc3n2CC(=O)Nc2cc(Cl)ccc2C)cc1 | inactive: -5.62%
6 | O=c1cc(-c2ccccc2)n2c(SCc3c(F)cccc3Cl)nnc2[nH]1 | inactive: 9.97%
7 | Cc1ccc(NC(=O)CN(C)S(=O)(=O)c2cnc[nH]2)cc1 | inactive: 2.63%
8 | Cc1ccc(C)c(CN2C(=O)c3ccccc3S(=O)c3ccc(C(=O)N4CCN(c5cccc(Cl)c5)CC4)cc32)c1 (stereo not drawn) | inactive: -23.9%
9 | Cc1ccc(NC(=O)Cn2c(=O)n(CCCCC(=O)NCc3ccccc3Cl)c(=O)c3ccccc32)cc1 | inactive: -9.58%
10 | COc1ccccc1OCC(=O)NCC(c1ccc(Cl)cc1)N1CCOCC1 (stereo not drawn) | inactive: -14.4%
11 | CCCc1nn2c(=O)cc(COc3ccc(/C=C(\C#N)C(=O)Nc4ccccc4)cc3)nc2s1 | inactive: -4.97%
12 | COc1ccc(C(CC(=O)NCc2ccccc2Cl)N2Cc3ccccc3C2=O)cc1OC (stereo not drawn) | inactive: -10.8%
13 | CC(C)CC(=O)NC1(C(F)(F)F)C(=O)Nc2c1c(=O)[nH]c(=O)n2-c1ccccc1 (stereo not drawn) | inactive: -1.29%
14 | CCc1cccc(C)c1NC(=O)CN1CCCN(Cc2ccccc2Cl)S1(=O)=O | inactive: -33.4%
15 | COc1cc(C(=O)NC(c2ccc(Cl)cc2)c2cc(Cl)c3cccnc3c2O)cc(OC)c1OC (stereo not drawn) | inactive: -60.8%
16 | CCOc1ccccc1NC(=O)C(CC)n1c(C(=O)OC)cc2occc21 (stereo not drawn) | inactive: -13.4%
17 | COc1cc(C2c3c(-c4ccccc4O)n[nH]c3C(=O)N2Cc2ccco2)ccc1OCC(C)C (stereo not drawn) | inactive: -21.3%
18 | COc1ccc(Nc2oc(/C=C/c3cccc(OC)c3)nc2C#N)cc1 | inactive: 21.9%
19 | CCCn1c(=NC(=O)c2cc3ccccc3o2)c(C(=O)OCC)cc2c(=O)n3ccccc3nc21 | inactive: 0.647%
20 | O=C(Cn1ncc2ccsc2c1=O)N1CCN(c2ccccc2F)CC1 | inactive: -9.79%
21 | CCCCN(CC)CCNC(=O)C1CCCN(S(=O)(=O)c2cccc3nsnc23)C1 (stereo not drawn) | inactive: 8.24%
22 | O=S(=O)(c1ccc(-n2cnnn2)cc1)N1CCN(c2cccc(Cl)c2)CC1 | inactive: -20.1%
23 | Cc1c(C(=O)N2CCCCCC2)c(S(=O)(=O)N(Cc2ccccc2)C(C)(C)C)c(C)n1C | inactive: -11.8%
24 | CCOc1ccc(CN(C(=O)c2cc(=O)c3cc(C)cc(C)c3o2)C2CCS(=O)(=O)C2)cc1 (stereo not drawn) | inactive: -6.58%

Row | SMILES | activity change, positive = activation
25 | COc1cc(NC(=O)CCc2c(C)nc3cc(-c4ccccc4)nn3c2C)cc(OC)c1OC | inactive: -69.4%
26 | Cc1ccc2c(c1)c(=O)c(C(=O)c1ccc3c(c1)OCO3)cn2Cc1ccc(Cl)cc1 | inactive: -33%
27 | CSc1ccc(/C=C/c2nc3ccccc3n2S(=O)(=O)c2cccc(Cl)c2)cc1 | inactive: -70.3%
28 | CCC(CC)C(=O)Nc1nnc(SCc2cc(=O)n3cccc(C)c3n2)s1 | inactive: -37.4%
29 | NC(=O)CC[C@@H]1NC(=O)[C@H](Cc2ccccc2)NC(=O)[C@H](Cc2ccc(O)cc2)NC(=O)CCSSC[C@@H](C(=O)N2CCC[C@H]2C(=O)N[C@@H](CCCN=C(N)N)C(=O)NCC(N)=O)NC(=O)[C@H](CC(N)=O)NC1=O | inactive: -7.58%
30 | CCOc1ccc(CN2C(=O)c3ccccc3Sc3ccc(C(=O)O)cc32)cc1 | inactive: -25.8%
31 | O=C(NCCc1ccc(Cl)cc1)C(=O)NCC(c1ccco1)S(=O)(=O)c1ccc(Cl)cc1 (stereo not drawn) | inactive: -25.7%
32 | Cc1oc2ncnc(N3CCCCC3)c2c1C(=O)N1CCN(c2cccc(Cl)c2)CC1 | inactive: -18.8%
33 | CCCN1C(=O)C2(c3ccccc31)c1c(oc3ccc(F)cc3c1=O)C(=O)N2CCCOC(C)C (stereo not drawn) | inactive: -12.6%
34 | c1coc(-c2nc3n(n2)C2(CCCCC2)[C@@H]2CCCC[C@@H]2N3)c1 | inactive: 19%
35 | CCc1nonc1NC(=O)c1oc2ccc(Br)cc2c1C | inactive: 10.4%
36 | CCc1ccc(-n2c(=O)c3c4c(sc3n(CC(=O)N3CCC(C)CC3)c2=O)CCC4)cc1 | inactive: -22.9%
37 | Cc1ccc(NC(=O)C2CCCN(S(=O)(=O)c3cccc4cccnc34)C2)cc1 (stereo not drawn) | inactive: -23.7%
38 | Cc1ccc(Cl)cc1NC(=O)c1oc2ccc(S(=O)(=O)N3CCCCC3)cc2c1C | inactive: 0.744%
39 | CCOC(=O)c1ccc(NC(=O)CSc2cc(=O)n(CC)c3ccccc23)cc1 | inactive: -0.119%
40 | Cc1ccc(S(=O)(=O)c2cn(Cc3cccc(C)c3)c3cc4c(cc3c2=O)OCO4)cc1 | inactive: -5.8%
41 | Cc1ccc(Cl)cc1NC(=O)c1oc2ccc(S(=O)(=O)N(C)C3CCCCC3)cc2c1C | inactive: -12.7%
42 | CC(=O)CSc1nnc2cc(C)c3cc(C)cc(C)c3n12 | inactive: -11.2%
43 | Cc1ccc(S(=O)(=O)N2CCC(C(=O)Nc3ccc(C)c(Cl)c3)CC2)cc1 | inactive: -30.9%
44 | COc1ccc(CCNC(=O)C(=O)NCC(c2cccs2)S(=O)(=O)c2ccc(C)cc2)cc1 (stereo not drawn) | inactive: -34.6%
45 | O=C1c2[nH]nc(-c3ccccc3O)c2C(c2cccc(OCc3ccccc3)c2)N1CCO (stereo not drawn) | inactive: -11.7%
46 | CCOC(=O)c1c(C)[nH]c(C)c1S(=O)(=O)N1CCN(c2cccc(C(F)(F)F)c2)CC1 | inactive: -43.1%
47 | CCN(CC)C(=O)Cn1c(=O)n(-c2ccc(Cl)cc2)c(=O)c2c3c(sc21)CCC3 | inactive: -1.71%
48 | COc1ccc(-n2nc(C)c3c(C(F)(F)F)cc(-c4cccnc4)nc32)cc1 | inactive: -4.27%

Row | SMILES | activity change, positive = activation
49 | Cc1cn2c(=O)cc(COC(=O)c3cccc(NC(=O)c4ccccc4C)c3)nc2s1 | inactive: -14.5%
50 | COc1ccc(C(=O)COC(=O)C(Cc2c[nH]c3ccccc23)NC(=O)c2ccc(C(C)(C)C)cc2)cc1 (stereo not drawn) | inactive: 2.38%
51 | CCOC(=O)c1cc(OC(=O)c2ccccc2C)n(-c2ccccc2)n1 | inactive: -2.03%
52 | CC1(C)NC(=O)N(c2ccc([N+](=O)[O-])c(C(F)(F)F)c2)C1=O | inactive
53 | COc1cccc(N2CCN(C(=O)CCS(=O)(=O)c3ccc4c(c3)oc(=O)n4C)CC2)c1 | inactive: -5.49%
54 | COCCCNC(=O)C1CCN(c2nc3ccc(C)cc3[nH]2)CC1 | inactive: 5.71%
55 | CCN(C(=O)CSc1nc(-c2ccc(C(C)C)cc2)no1)c1cccc(C)c1 | inactive: -21.9%
56 | COc1ccc(OC)c(NS(=O)(=O)c2ccc(-c3cc(C)no3)s2)c1 | inactive: -47.6%
57 | COc1ccc(CNC(=O)CCCn2nc(C)c3c(C)n(-c4ccccc4)nc3c2=O)cc1 | inactive: -10.7%
58 | Cc1cccc(C(=O)Nc2nnc(S(=O)(=O)N(C)c3ccccc3C)s2)c1 | inactive: -37.2%
59 | Cc1ccc(-n2c(-c3ccco3)nc3c(cnn3-c3ccccc3Cl)c2=O)cc1 | inactive: -12.2%
60 | CCCCCCc1ccc(O)cc1O | inactive: -1.64%
61 | CC(C)c1cnc2c(c1SCC(=O)Nc1cccc(F)c1)c(=O)n(C)c(=O)n2C | inactive: -24.3%
62 | Cc1ccc(Cl)cc1Nc1nn2c(=O)c3ccc(C(=O)N4CCCC(C)C4)cc3nc2s1 (stereo not drawn) | inactive: -29.4%
63 | CCn1cc2nc(SCc3cccc(Cl)c3)n(Cc3ccc(C)cc3)c(=O)c2n1 | inactive: -1.41%
64 | COc1ccc(CCNS(=O)(=O)c2cc(-c3cc(C)no3)ccc2C)cc1OC | inactive: -11.4%
65 | O=C(Nc1cccc(F)c1)C1CCN(S(=O)(=O)c2cccc3nsnc23)CC1 | inactive: -16.6%
66 | CN(C)c1ccc(CNC(=O)CCn2cccn2)cc1 | inactive: -3.28%
67 | CCc1ccc(CN2CCc3nc(N4CCN(CC)CC4)ncc3C2)cc1 | inactive: -18.8%
68 | Cc1ccc(CCNC(=O)c2ccc3c(c2)N(Cc2cccc(Cl)c2)C(=O)c2ccccc2S3(=O)=O)cc1 | inactive: -7.47%
69 | Cc1cc(C)cc(OC(C)C(=O)Nc2c(C(=O)c3ccccc3)oc3ccccc23)c1 (stereo not drawn) | inactive: -3.29%
70 | O=C(Nc1cccc(C(F)(F)F)c1)C1CCCN1S(=O)(=O)c1cccc2nsnc12 (stereo not drawn) | inactive: -41.3%
71 | CSc1ccc(C2c3c(oc4cc(C)cc(C)c4c3=O)C(=O)N2Cc2ccco2)cc1 (stereo not drawn) | inactive: 5.83%
72 | CCCN(CCC)S(=O)(=O)c1ccc(C(=O)Nc2sc3c(c2C(=O)OC)CCN(CC)C3)cc1 | inactive: -29.2%

Row | SMILES | activity change, positive = activation
73 | Cc1ccc(OCC(=O)Nc2ccc3nc(SCC(=O)N4CCOCC4)sc3c2)cc1 | inactive: 0.0727%
74 | COc1ccccc1NC(=O)CSc1ncc2c(n1)-c1cc(Cl)ccc1N(Cc1ccccc1)S2(=O)=O | inactive: -25.8%
75 | CCCCc1c(C)nc2c(-c3ccc(OC)cc3)c(C)[nH]n2c1=O | inactive: -23.7%
76 | CCCCNC(=O)CCCn1c(=O)c2ccccc2n(Cc2cccc(Cl)c2)c1=O | inactive: -36.7%
77 | Cn1c(CN2CCCCC2)nc2cc(NC(=O)c3ccccc3Cl)ccc21 | inactive: -44%
78 | COc1ccc2nc(NC(=O)c3nc(SC(C)C)ncc3Cl)sc2c1 | inactive: -8.51%
79 | O=C(NC1CCCC1)c1cc(Nc2cccc(C(F)(F)F)c2)nc2ccccc12 | inactive: -15.9%
80 | CCC(=O)N1CCc2cc(Br)cc(S(=O)(=O)CCC(=O)N3CCN(c4ccccc4F)CC3)c21 | inactive: 14.6%
81 | NC(=O)c1nc(Nc2ccccc2)sc1NC(=O)c1ccccc1Br | inactive: 17.5%
82 | CCOC(=O)c1cccc(NS(=O)(=O)c2ccc(-c3cnc(C4CC4)o3)cc2)c1 | inactive: -37%
83 | COc1cc(OC)cc(-c2cc3nc(C)c(CCC(=O)NCc4ccc(Cl)cc4)c(C)n3n2)c1 | inactive: -86.5%
84 | Cc1cc2oc(=O)cc(C)c2c2occ(-c3ccc(Cl)cc3)c12 | inactive: -15.6%
85 | Cc1cccc(N2CCN(C(=O)Cn3ncc4c5ccccc5n(C)c4c3=O)CC2)c1C | inactive: -9.76%
86 | COc1ccc(C(=O)Nc2ccc(-n3nncc3-c3ccccc3)cc2)cc1OC | inactive: -6.93%
87 | Cc1ccc2[nH]c3c(=O)n(CC(=O)N4CCCCC4)ncc3c2c1 | inactive: 2.08%
88 | Clc1ccc(C(c2ccccc2)c2c[nH]c3ccccc23)s1 (stereo not drawn) | inactive: -27.7%
89 | Cc1ccc(C)n1-c1nnc(N2CCCC(C(=O)NCc3cccc(F)c3)C2)s1 (stereo not drawn) | inactive: -18%
90 | COc1ccc(OC)c(CNC(=O)C2CCN(c3nc4ccccc4nc3C(F)(F)F)CC2)c1 | inactive: 13.5%
91 | Cc1ccc(-n2nc(CO)c(C(=O)NCc3cccnc3)n2)cc1 | inactive: -35.5%
92 | CCc1ccc(S(=O)(=O)c2cn(Cc3ccccc3)c3cc(F)c(F)cc3c2=O)cc1 | inactive: 5.78%
93 | CCc1ccccc1Nc1nc2ccccc2c2nncn12 | inactive: -11.7%
